What all share (assay): SPR 25C
Experiment [1] has as its target cyno Fc gamma RIIIaS extracellular domain, His-tagged (cynomolgus monkey) (UniProt Q8SPW2).
Experiment [2] addresses cyno Fc gamma RIIa1 extracellular domain, His-tagged (cynomolgus monkey).
Experiment [3] concerns the target cyno Fc gamma RIIa2 extracellular domain, His-tagged (cynomolgus monkey).
For experiment [4], the target named is cyno Fc gamma RIIa3 extracellular domain, His-tagged (cynomolgus monkey).
For experiment [5], the target named is cyno Fc gamma RIIb extracellular domain, His-tagged (cynomolgus monkey).
Chain of cyno Fc gamma RIIb extracellular domain, His-tagged (cynomolgus monkey) (chain, as listed by the source): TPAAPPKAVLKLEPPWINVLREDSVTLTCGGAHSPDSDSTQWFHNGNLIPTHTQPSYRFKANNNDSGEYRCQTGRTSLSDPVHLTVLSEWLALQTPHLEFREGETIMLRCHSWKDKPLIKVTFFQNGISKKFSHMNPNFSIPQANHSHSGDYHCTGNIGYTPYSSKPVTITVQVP
Experiment [6] deals with human Fc gamma RIIIaV extracellular domain, His-tagged (human) (UniProt P08637).
Chain of UniProt P08637 (P08637 17-208 F176V): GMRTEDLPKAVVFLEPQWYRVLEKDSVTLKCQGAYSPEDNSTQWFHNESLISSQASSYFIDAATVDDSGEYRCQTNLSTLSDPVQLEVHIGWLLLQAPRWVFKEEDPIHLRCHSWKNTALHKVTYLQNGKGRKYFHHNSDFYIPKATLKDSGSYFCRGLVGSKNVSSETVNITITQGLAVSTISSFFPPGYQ
Experiment [7] addresses human Fc gamma RIIaH extracellular domain, His-tagged (human) (UniProt P12318).
Experiment [8] has as its target human Fc gamma RIIaR extracellular domain, His-tagged (human) (UniProt P12318).
Experiment [9] concerns the target human Fc gamma RIIb extracellular domain, His-tagged (human) (UniProt P31994).
Chain of UniProt P31994 (P31994 43-217): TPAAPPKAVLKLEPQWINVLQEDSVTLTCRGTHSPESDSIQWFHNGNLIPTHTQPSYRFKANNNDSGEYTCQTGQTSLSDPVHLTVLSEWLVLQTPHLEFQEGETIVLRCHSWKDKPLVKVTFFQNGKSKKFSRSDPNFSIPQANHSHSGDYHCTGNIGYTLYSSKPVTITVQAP

Chain of UniProt Q8SPW2 (Q8SPW2 other isoform, or with tags, fused parts or gaps): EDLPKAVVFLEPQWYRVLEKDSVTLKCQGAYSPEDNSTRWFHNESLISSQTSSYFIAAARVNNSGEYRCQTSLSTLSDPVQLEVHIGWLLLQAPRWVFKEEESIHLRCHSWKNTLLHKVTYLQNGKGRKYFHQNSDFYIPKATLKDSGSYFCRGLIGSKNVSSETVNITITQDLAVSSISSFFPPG

B1: M103205H795-SG175/M103202L889-SK1 (antibody, human IgG1, kappa)
heavy: QVTLKESGPVLVKPTETLTLTCTVSGIDLSHDDISWVRQAPGKGLEWVGIISYAGSTYYASWAKGRLTISKDTSKNQVVLTMTNMDPVDTATYYCARGVPAYSHGGDLWGQGTLVTVSSASTKGPSVFPLAPSSKSTSGGTAALGCLVKDYFPEPVTVSWNSGALTSGVHTFPAVLQSSGLYSLSSVVTVPSSSLGTQTYICNVNHKPSNTKVDKKV[letters of human IgG1 Fc with N325F (EU numbers) not shown]
light: DIVMTQSPATLSLSPGERATLSCTSSQSVYHANWLSWFQQKPGQPPKLLIYWASTLAYGVPSRFSGSGSGTDFTLTISSLQPEDAATYYCAGGYGGGRYAFGQGTKVEIKRTVAAPSVFIFPPSDEQLKSGTASVVCLLNNFYPREAKVQWKVDNALQSGNSQESVTEQDSKDSTYSLSSTLTLSKADYEKHKVYACEVTHQGLSSPVTKSFNRGEC
In the case of B1, the relative binding in [1] turned out to be 8 SG1=100; in [2] it was 13 SG1=100; in [3], 13 SG1=100; in [4], 17 SG1=100; in experiment [5], 14 SG1=100.

B2: M103205H795-SG179/M103202L889-SK1 (antibody, human IgG1, kappa)
heavy: QVTLKESGPVLVKPTETLTLTCTVSGIDLSHDDISWVRQAPGKGLEWVGIISYAGSTYYASWAKGRLTISKDTSKNQVVLTMTNMDPVDTATYYCARGVPAYSHGGDLWGQGTLVTVSSASTKGPSVFPLAPSSKSTSGGTAALGCLVKDYFPEPVTVSWNSGALTSGVHTFPAVLQSSGLYSLSSVVTVPSSSLGTQTYICNVNHKPSNTKVDKKV[letters of human IgG1 Fc with A327I (EU numbers) not shown]
light: DIVMTQSPATLSLSPGERATLSCTSSQSVYHANWLSWFQQKPGQPPKLLIYWASTLAYGVPSRFSGSGSGTDFTLTISSLQPEDAATYYCAGGYGGGRYAFGQGTKVEIKRTVAAPSVFIFPPSDEQLKSGTASVVCLLNNFYPREAKVQWKVDNALQSGNSQESVTEQDSKDSTYSLSSTLTLSKADYEKHKVYACEVTHQGLSSPVTKSFNRGEC
On to B2, for which the relative binding was found to be 48 SG1=100 in experiment [1]; 19 SG1=100 in experiment [2]; 17 SG1=100 in [3]; 28 SG1=100 in [4]; 19 SG1=100 in experiment [5].

B3: M103205H795-SG177/M103202L889-SK1 (antibody, human IgG1, kappa)
heavy: QVTLKESGPVLVKPTETLTLTCTVSGIDLSHDDISWVRQAPGKGLEWVGIISYAGSTYYASWAKGRLTISKDTSKNQVVLTMTNMDPVDTATYYCARGVPAYSHGGDLWGQGTLVTVSSASTKGPSVFPLAPSSKSTSGGTAALGCLVKDYFPEPVTVSWNSGALTSGVHTFPAVLQSSGLYSLSSVVTVPSSSLGTQTYICNVNHKPSNTKVDKKV[letters of human IgG1 Fc with N325L (EU numbers) not shown]
light: DIVMTQSPATLSLSPGERATLSCTSSQSVYHANWLSWFQQKPGQPPKLLIYWASTLAYGVPSRFSGSGSGTDFTLTISSLQPEDAATYYCAGGYGGGRYAFGQGTKVEIKRTVAAPSVFIFPPSDEQLKSGTASVVCLLNNFYPREAKVQWKVDNALQSGNSQESVTEQDSKDSTYSLSSTLTLSKADYEKHKVYACEVTHQGLSSPVTKSFNRGEC
B3: the relative binding in experiment [1] stood at 21 SG1=100; in [2], 15 SG1=100; in experiment [3] it was 15 SG1=100; in experiment [4], 25 SG1=100; in experiment [5], 18 SG1=100.

B4: M103205H795-SG176/M103202L889-SK1 (antibody, human IgG1, kappa)
heavy: QVTLKESGPVLVKPTETLTLTCTVSGIDLSHDDISWVRQAPGKGLEWVGIISYAGSTYYASWAKGRLTISKDTSKNQVVLTMTNMDPVDTATYYCARGVPAYSHGGDLWGQGTLVTVSSASTKGPSVFPLAPSSKSTSGGTAALGCLVKDYFPEPVTVSWNSGALTSGVHTFPAVLQSSGLYSLSSVVTVPSSSLGTQTYICNVNHKPSNTKVDKKV[letters of human IgG1 Fc with N325I (EU numbers) not shown]
light: DIVMTQSPATLSLSPGERATLSCTSSQSVYHANWLSWFQQKPGQPPKLLIYWASTLAYGVPSRFSGSGSGTDFTLTISSLQPEDAATYYCAGGYGGGRYAFGQGTKVEIKRTVAAPSVFIFPPSDEQLKSGTASVVCLLNNFYPREAKVQWKVDNALQSGNSQESVTEQDSKDSTYSLSSTLTLSKADYEKHKVYACEVTHQGLSSPVTKSFNRGEC
For B4, the relative binding in experiment [1] was determined as 20 SG1=100; in [2], 14 SG1=100; in experiment [3], 15 SG1=100; in experiment [4], 19 SG1=100; in [5], 16 SG1=100.

B5: M103205H795-SG178/M103202L889-SK1 (antibody, human IgG1, kappa)
heavy: QVTLKESGPVLVKPTETLTLTCTVSGIDLSHDDISWVRQAPGKGLEWVGIISYAGSTYYASWAKGRLTISKDTSKNQVVLTMTNMDPVDTATYYCARGVPAYSHGGDLWGQGTLVTVSSASTKGPSVFPLAPSSKSTSGGTAALGCLVKDYFPEPVTVSWNSGALTSGVHTFPAVLQSSGLYSLSSVVTVPSSSLGTQTYICNVNHKPSNTKVDKKV[letters of human IgG1 Fc with N325E (EU numbers) not shown]
light: DIVMTQSPATLSLSPGERATLSCTSSQSVYHANWLSWFQQKPGQPPKLLIYWASTLAYGVPSRFSGSGSGTDFTLTISSLQPEDAATYYCAGGYGGGRYAFGQGTKVEIKRTVAAPSVFIFPPSDEQLKSGTASVVCLLNNFYPREAKVQWKVDNALQSGNSQESVTEQDSKDSTYSLSSTLTLSKADYEKHKVYACEVTHQGLSSPVTKSFNRGEC
Turning to B5, the relative binding in experiment [1] amounted to 36 SG1=100; in [2], 22 SG1=100; in experiment [3] it was 21 SG1=100; in [4], 29 SG1=100; in [5], 26 SG1=100.

B6: GpH7-B3 S267A/GpL16-k0 (antibody, human IgG1, kappa)
heavy: QVQLVQSGAEVKKPGASVTVSCKASGYTFTDYEMHWIRQPPGEGLEWIGAIDPKTGDTAYSESFQDRVTLTADKSTSTAYMELSSLTSEDTAVYYCTRFYSYTYWGQGTLVTVSS[letters of human IgG1 constant region with S267A K439E (EU numbers) not shown]
light: DIVMTQSPLSLPVTPGEPASISCQASESLVHSNRNTYLHWYLQKPGQSPQLLIYKVSNRFSGVPDRFSGSGSGTDFTLKISRVEAEDVGVYYCSQNTHVPPTFGQGTKVEIERTVAAPSVFIFPPSDEQLKSGTASVVCLLNNFYPREAKVQWKVDNALQSGNSQESVTEQDSKDSTYSLSSTLTLSKADYEKHKVYACEVTHQGLSSPVTKSFNRGEC
Regarding B6, the relative binding (parent B3=100) amounted to 145 in [6], 176 in experiment [7], 125 in [8] and 283 in experiment [9].

B7: GpH7-B3 Q295L/GpL16-k0 (antibody, human IgG1, kappa)
heavy: QVQLVQSGAEVKKPGASVTVSCKASGYTFTDYEMHWIRQPPGEGLEWIGAIDPKTGDTAYSESFQDRVTLTADKSTSTAYMELSSLTSEDTAVYYCTRFYSYTYWGQGTLVTVSS[letters of human IgG1 constant region with Q295L K439E (EU numbers) not shown]
light: DIVMTQSPLSLPVTPGEPASISCQASESLVHSNRNTYLHWYLQKPGQSPQLLIYKVSNRFSGVPDRFSGSGSGTDFTLKISRVEAEDVGVYYCSQNTHVPPTFGQGTKVEIERTVAAPSVFIFPPSDEQLKSGTASVVCLLNNFYPREAKVQWKVDNALQSGNSQESVTEQDSKDSTYSLSSTLTLSKADYEKHKVYACEVTHQGLSSPVTKSFNRGEC
For B7, the relative binding (parent B3=100) in experiment [6] was found to be 135; in experiment [7], 128; in experiment [8], 148; in [9], 156.

B8: GpH7-B3 P271G/GpL16-k0 (antibody, human IgG1, kappa)
heavy: QVQLVQSGAEVKKPGASVTVSCKASGYTFTDYEMHWIRQPPGEGLEWIGAIDPKTGDTAYSESFQDRVTLTADKSTSTAYMELSSLTSEDTAVYYCTRFYSYTYWGQGTLVTVSS[letters of human IgG1 constant region with P271G K439E (EU numbers) not shown]
light: DIVMTQSPLSLPVTPGEPASISCQASESLVHSNRNTYLHWYLQKPGQSPQLLIYKVSNRFSGVPDRFSGSGSGTDFTLKISRVEAEDVGVYYCSQNTHVPPTFGQGTKVEIERTVAAPSVFIFPPSDEQLKSGTASVVCLLNNFYPREAKVQWKVDNALQSGNSQESVTEQDSKDSTYSLSSTLTLSKADYEKHKVYACEVTHQGLSSPVTKSFNRGEC
Turning to B8, the relative binding (parent B3=100) in experiment [6] is 93; in experiment [7] it was 152; in experiment [8], 130; in [9] it was 252.

B9: GpH7-B3 H268E/GpL16-k0 (antibody, human IgG1, kappa)
heavy: QVQLVQSGAEVKKPGASVTVSCKASGYTFTDYEMHWIRQPPGEGLEWIGAIDPKTGDTAYSESFQDRVTLTADKSTSTAYMELSSLTSEDTAVYYCTRFYSYTYWGQGTLVTVSS[letters of human IgG1 constant region with H268E K439E (EU numbers) not shown]
light: DIVMTQSPLSLPVTPGEPASISCQASESLVHSNRNTYLHWYLQKPGQSPQLLIYKVSNRFSGVPDRFSGSGSGTDFTLKISRVEAEDVGVYYCSQNTHVPPTFGQGTKVEIERTVAAPSVFIFPPSDEQLKSGTASVVCLLNNFYPREAKVQWKVDNALQSGNSQESVTEQDSKDSTYSLSSTLTLSKADYEKHKVYACEVTHQGLSSPVTKSFNRGEC
Turning to B9, the relative binding (parent B3=100) in [6] was 205; in [7], 169; in experiment [8], 132; in [9], 283.
